# The list shows a part of the results. Single values are uncertain, as repeats are few or missing.
# Columns and labels:
# Assay in all cases: cell count relative to DMSO control; melanoma cells; higher = more viable cells
# Details in all cases: library dose: standard library concentration; 72 h
# G361 = tested on: G361
# IPC-298 = tested on: IPC-298
# IST-MEL1 = tested on: IST-MEL1
# LB2518-MEL = tested on: LB2518-MEL
# LOXIMVI = tested on: LOXIMVI
# MEL-HO = tested on: MEL-HO
# MZ2-MEL = tested on: MZ2-MEL
# MeWo = tested on: MeWo
# RPMI7951 = tested on: RPMI7951
# RVH-421 = tested on: RVH-421
# 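Further: cells treated in 1,536-well plates, then fixed and DAPI-stained, with nuclei counted from automated high-throughput microscope images.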
Compound,cell count (G361) [%],cell count (IPC-298) [%],cell count (IST-MEL1) [%],cell count (LB2518-MEL) [%],cell count (LOXIMVI) [%],cell count (MEL-HO) [%],cell count (MZ2-MEL) [%],cell count (MeWo) [%],cell count (RPMI7951) [%],cell count (RVH-421) [%]
"CC[C@]1(O)C[C@H]2CN(CCc3c([nH]c4ccccc34)[C@@](C(=O)OC)(c3cc4c(cc3OC)N(C=O)[C@H]3[C@@](O)(C(=O)OC)[C@H](OC(C)=O)[C@]5(CC)C=CCN6CC[C@]43[C@@H]65)C2)C1 [vincristine] + O=C(Nc1cc(C(F)(F)F)cc(C(F)(F)F)c1)c1cc(Cl)ccc1O [IMD0354] (first compound 0.0005 µM, partner dose 0.08 µM)",118,108,81,76.9,69.7,86.5,83.1,98.1,58,83.7
"N#CC[C@H](C1CCCC1)n1cc(-c2ncnc3[nH]ccc23)cn1 [ruxolitinib] + C[C@@H]1CCN(C(=O)CC#N)C[C@@H]1N(C)c1ncnc2[nH]ccc12 [CP690550] (first compound 5 µM, partner dose 5 µM)",70.3,112,77.2,151,101,92,133,81.1,116,127
"CC[C@]1(O)C[C@H]2CN(CCc3c([nH]c4ccccc34)[C@@](C(=O)OC)(c3cc4c(cc3OC)N(C=O)[C@H]3[C@@](O)(C(=O)OC)[C@H](OC(C)=O)[C@]5(CC)C=CCN6CC[C@]43[C@@H]65)C2)C1 [vincristine] + CS(=O)(=O)c1ccc(C(=O)Nc2ccc(Cl)c(-c3ccccn3)c2)c(Cl)c1 [vismodegib] (first compound 0.0005 µM, partner dose 5 µM)",69.5,83.1,94.5,67.6,76.7,76.4,74.2,80.1,51.7,85.4
"Cc1cc(Nc2cc(N3CCN(C)CC3)nc(Sc3ccc(NC(=O)C4CC4)cc3)n2)n[nH]1 [Tozasertib] + O=C(/C=C/c1cccnc1)NCCCCC1CCN(C(=O)c2ccccc2)CC1 [FK866] (first compound 0.03 µM, partner dose 0.05 µM)",5.14,34.4,65.7,57.6,102,42.2,41.1,81.7,64.6,34
"CC[C@]1(O)C[C@H]2CN(CCc3c([nH]c4ccccc34)[C@@](C(=O)OC)(c3cc4c(cc3OC)N(C=O)[C@H]3[C@@](O)(C(=O)OC)[C@H](OC(C)=O)[C@]5(CC)C=CCN6CC[C@]43[C@@H]65)C2)C1 [vincristine] + O=C(Nc1ccccc1)c1cc([N+](=O)[O-])ccc1Cl [GW9662] (first compound 0.0005 µM, partner dose 10 µM)",29.8,72.6,32.3,61.7,43.5,36.9,31.4,14.1,15.6,43.9
"N#CC[C@H](C1CCCC1)n1cc(-c2ncnc3[nH]ccc23)cn1 [ruxolitinib] + COc1cc2ncnc(Nc3ccc(Oc4ccccc4)cc3)c2cc1OC [SrcI1] (first compound 5 µM, partner dose 10 µM)",51,79.2,80.1,108,62.9,72.3,82,61.9,45.7,94.3
"N#CC[C@H](C1CCCC1)n1cc(-c2ncnc3[nH]ccc23)cn1 [ruxolitinib] + CC(C)C[C@H](NC(=O)[C@H](Cc1ccccc1)NC(=O)c1cnccn1)B(O)O [Bortezomib] (first compound 5 µM, partner dose 0.005 µM)",0.403,9.89,12.1,2.08,17.3,26,3.14,20.5,5.97,6.29
"N#CC[C@H](C1CCCC1)n1cc(-c2ncnc3[nH]ccc23)cn1 [ruxolitinib] + Cc1cc(Nc2cc(N3CCN(C)CC3)nc(/C=C/c3ccccc3)n2)n[nH]1 [ENMD2076] (first compound 5 µM, partner dose 0.2 µM)",76.9,90.5,90,92.5,59,88.9,88.9,71.3,89.2,78.2
"Cc1cc(Nc2cc(N3CCN(C)CC3)nc(Sc3ccc(NC(=O)C4CC4)cc3)n2)n[nH]1 [Tozasertib] + OCc1c[nH]c2ccccc12 [Indole-3-carbinol] (first compound 0.03 µM, partner dose 4 µM)",89.5,92.5,105,69.4,79.5,87.3,54.8,73.3,84,86.1
"N#CC[C@H](C1CCCC1)n1cc(-c2ncnc3[nH]ccc23)cn1 [ruxolitinib] + O=C1NC(=O)/C(=C/c2ccc(-c3ccc(F)cc3O)o2)S1 [AS252424] (first compound 5 µM, partner dose 5 µM)",77.1,83.3,89.8,154,128,56.7,92.1,87.9,87.3,98.3
"CC[C@]1(O)C[C@H]2CN(CCc3c([nH]c4ccccc34)[C@@](C(=O)OC)(c3cc4c(cc3OC)N(C=O)[C@H]3[C@@](O)(C(=O)OC)[C@H](OC(C)=O)[C@]5(CC)C=CCN6CC[C@]43[C@@H]65)C2)C1 [vincristine] + Cc1cc([N+](=O)[O-])ccc1NS(=O)(=O)c1cc(Cl)ccc1Cl [FH535] (first compound 0.0005 µM, partner dose 5 µM)",30.3,41.3,32.2,63.1,49,46.2,31.1,29.1,29.8,47.2
"N#CC[C@H](C1CCCC1)n1cc(-c2ncnc3[nH]ccc23)cn1 [ruxolitinib] + CC(=O)c1c(C)c2cnc(Nc3ccc(N4CCNCC4)cn3)nc2n(C2CCCC2)c1=O [palbociclib] (first compound 5 µM, partner dose 0.2 µM)",48.8,69.2,67.3,62.4,70.1,64.5,60,44.9,59.6,45.8
"Cc1cc(Nc2cc(N3CCN(C)CC3)nc(Sc3ccc(NC(=O)C4CC4)cc3)n2)n[nH]1 [Tozasertib] + OCCn1cc(-c2cnc3nnn(Cc4ccc5ncccc5c4)c3n2)cn1 [PF04217903] (first compound 0.03 µM, partner dose 5 µM)",75.5,85.3,154,58,59.7,87.5,71.5,69.4,45,12
"Cc1cc(Nc2cc(N3CCN(C)CC3)nc(Sc3ccc(NC(=O)C4CC4)cc3)n2)n[nH]1 [Tozasertib] + O=C(O)c1ccc2c(c1)nc(Nc1cccc(Cl)c1)c1ccncc12 [CX4945] (first compound 0.03 µM, partner dose 2 µM)",51,63.3,74.2,78.3,34.3,42.7,27.4,57.9,52.5,69.7
"Cc1cc(Nc2cc(N3CCN(C)CC3)nc(Sc3ccc(NC(=O)C4CC4)cc3)n2)n[nH]1 [Tozasertib] + Cn1cncc1[C@@](N)(c1ccc(Cl)cc1)c1ccc2c(c1)c(-c1cccc(Cl)c1)cc(=O)n2C [tipifarnib] (first compound 0.03 µM, partner dose 0.05 µM)",82.1,117,86.3,88.9,88.2,106,109,85.5,73.5,106
"N#CC[C@H](C1CCCC1)n1cc(-c2ncnc3[nH]ccc23)cn1 [ruxolitinib] + Oc1nc(-c2ccc(C(F)(F)F)cc2)nc2c1CSCC2 [XAV939] (first compound 5 µM, partner dose 10 µM)",83.6,92.3,94.6,119,122,86.2,85.3,94.5,83.2,75.4
"Cc1cc(Nc2cc(N3CCN(C)CC3)nc(Sc3ccc(NC(=O)C4CC4)cc3)n2)n[nH]1 [Tozasertib] + NC(=O)Nc1cc(-c2cccc(F)c2)sc1C(=O)N[C@H]1CCCNC1 [AZD7762] (first compound 0.03 µM, partner dose 0.1 µM)",76.1,95.3,85.7,51.7,62.3,81.6,72.2,81.7,30,136
"CC[C@]1(O)C[C@H]2CN(CCc3c([nH]c4ccccc34)[C@@](C(=O)OC)(c3cc4c(cc3OC)N(C=O)[C@H]3[C@@](O)(C(=O)OC)[C@H](OC(C)=O)[C@]5(CC)C=CCN6CC[C@]43[C@@H]65)C2)C1 [vincristine] + CCN(CC)CCNC(=O)c1c(C)[nH]c(/C=C2\C(=O)Nc3ccc(F)cc32)c1C [sunitinib] (first compound 0.0005 µM, partner dose 2 µM)",95.1,65.6,87,71,149,100,61.5,68.1,51.4,75.2
"Cc1cc(Nc2cc(N3CCN(C)CC3)nc(Sc3ccc(NC(=O)C4CC4)cc3)n2)n[nH]1 [Tozasertib] + C=CCn1c(=O)c2cnc(Nc3ccc(N4CCN(C)CC4)cc3)nc2n1-c1cccc(C(C)(C)O)n1 [MK1775] (first compound 0.03 µM, partner dose 0.1 µM)",82.4,83.3,88.6,46.5,74.5,87.2,90.5,82.9,48.4,86.5

# — the supplement of paper PMC4604168 (melanoma cell lines)
